# In PubChem BioAssay (Tox21):
# Where “and” joins values, the source holds several entries; their conditions need not be identical. Identical values can stand only once. Inconclusive means that the source gave no clear call. Such entries were picked first, then a sample of the others. For part of these data: Where the call is inconclusive, the potency comes from a doubtful curve fit. Calls of active or inactive are those of the source. Unless noted, calls come from the whole dose curve.
# How the values were obtained:
# [1] = target: Peroxisome proliferator-activated receptor gamma (Homo sapiens) (UniProt P37231); test: qHTS assay to identify small molecule agonists of the peroxisome proliferator-activated receptor gamma (PPARg) signaling pathway (AID 743094; active = well fitted activation curve with a large enough effect in the signal ratio in the repeat runs, not every such curve was filed as active; inconclusive = weak or mixed curves, or effect the other way; inactive = no such curve, though single readings can be large or run the other way; the % refers to the signal ratio; note: potency is the fitted concentration of half-maximal effect); conditions: HEK293H PPARg-UAS-bla, beta-lactamase FRET ratio, 17 h; activation: at 57 µM (top of the series) unless noted
# Procedure, shortened: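 Following 5 h plating at 37C, PPARg-bla HEK293H cells receive compound or DMSO for 17 h; fluorescence intensity is recorded after LiveBLAzer B/G loading for 1 h at room temperature.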
# [2] = target: Peroxisome proliferator-activated receptor gamma (Homo sapiens) (UniProt P37231); test: qHTS assay to identify small molecule antagonists of the peroxisome proliferator-activated receptor gamma (PPARg) signaling pathway (AID 743191); conditions: HEK293H PPARg-UAS-bla, beta-lactamase ratio, antagonist, 17 h; ratio activity, negative = inhibition: at 62.6 µM (top of the series) unless noted; note: nearly all actives have a fitted effect of over 30% in size; note: potency is the fitted concentration of half-maximal effect; for ratio activity, negative = inhibition: % is set by controls: 0 for no effect and ±100 for the full control effect
# Procedure, shortened: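 GeneBLAzer PPARg UAS-bla HEK293H cells carrying a UAS-driven beta-lactamase reporter were plated at 3000 cells/well, preincubated 5 h at 37C, then given compound for 17 h at 37C; LiveBLAzer B/G FRET substrate was read after 1 h at room temperature.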
# [3] = qHTS assay for small molecule agonists of the antioxidant response element (ARE) signaling pathway (AID 743202; active = well fitted activation curve with a large enough effect in the signal ratio in the repeat runs, not every such curve was filed as active; inconclusive = weak or mixed curves, or effect the other way; inactive = no such curve, though single readings can be large or run the other way; the % refers to the signal ratio; note: potency is the fitted concentration of half-maximal effect; for activation: % is set by controls: 0 for no effect and ±100 for the full control effect); conditions: HepG2 ARE-bla reporter, beta-lactamase FRET, 16 h; activation: at 73.3 µM (top of the series) unless noted
# Procedure, shortened: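 Compounds delivered in DMSO to ARE-bla HepG2 cells (2,000 cells/well, pre-incubated 5 h) and left 16 h at 37 C. LiveBLAzer B/G FRET substrate then added for 2 h at RT before fluorescence reading.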
# [4] = qHTS assay for small molecule activators of the heat shock response signaling pathway (AID 743210; active = well fitted activation curve with a large enough effect in the signal ratio in the repeat runs, with a control signal flat, not every such curve was filed as active; inconclusive = weak or mixed curves; the % refers to the signal ratio; note: potency is the fitted concentration of half-maximal effect); conditions: HeLa HSE-bla reporter, beta-lactamase ratio, 5 h; activation: at 62.6 µM (top of the series) unless noted
# Procedure, shortened: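 Reporter gene assay: HeLa cells stably bearing an HSE-bla construct, compound treatment 5 h at 37 C, LiveBLAzer substrate 2.5 h at RT, fluorescence intensity.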
# [5] = qHTS assay to identify small molecule agonists of the peroxisome proliferator-activated receptor delta (PPARd) signaling pathway - cell viability counter screen (AID 743211; active = well fitted curve in the direction sought with a large enough effect in the repeat runs; inconclusive = weak or mixed curves; inactive = no such curve, though single readings can be large; an effect the other way counts as inactive or inconclusive; note: nearly all actives have a fitted effect of over 55% in size; note: potency is the fitted concentration of half-maximal effect); conditions: PPARd-bla HEK293H viability, CellTiter-Glo luminescence, 17 h; activity change, negative = cytotoxicity: at 62.6 µM (top of the series) unless noted
# Procedure, shortened: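 Multiplexed format: after the 2 h room-temperature LiveBLAzer B/G FRET step, CellTiter-Glo was added to the same wells. Luminescence after 30 min gave cell viability; compound exposure was 17 h at 37C.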
# [6] = qHTS assay to identify small molecule antagonists of the peroxisome proliferator-activated receptor delta (PPARd) signaling pathway - cell viability counter screen (AID 743213; active = well fitted curve in the direction sought with a large enough effect in the repeat runs; inconclusive = weak or mixed curves; inactive = no such curve, though single readings can be large; an effect the other way counts as inactive or inconclusive; note: nearly all actives have a fitted effect of over 50% in size; note: potency is the fitted concentration of half-maximal effect); conditions: PPARd-bla HEK293H viability, CellTiter-Glo luminescence, 17 h; viability change, negative = cytotoxic: at 62 µM (top of the series) unless noted
# Procedure, shortened: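 HEK293H cells with the PPARd UAS-bla reporter, co-treated 17 h at 37 C with compounds and L165041 (300 nM final), were lysed with CellTiter-Glo. Luminescence indicated viable cell content.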
# [7] = target: Bile acid receptor (Homo sapiens) (UniProt Q96RI1); test: qHTS assay to identify small molecule antagonists of the farnesoid-X-receptor (FXR) signaling pathway (AID 743217; active = well fitted inhibition curve with a large enough effect in the signal ratio in the repeat runs, not every such curve was filed as active; inconclusive = weak or mixed curves, or effect the other way; inactive = no such curve, though single readings can be large or run the other way; the % refers to the signal ratio; note: potency is the fitted concentration of half-maximal effect); conditions: HEK293T FXR-UAS-bla, beta-lactamase ratio, CDCA-stimulated, 16 h; activity change, negative = inhibition: at 62.6 µM (top of the series) unless noted
# Procedure, shortened: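 In this cell-based antagonist screen, inhibition of CDCA-driven (50 uM final) UAS-beta-lactamase expression in HEK 293T cells was measured by FRET fluorescence following 16 h compound exposure at 37 °C.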
# [8] = qHTS assay to identify small molecule agonists of the farnesoid-X-receptor (FXR) signaling pathway - cell viability counter screen (AID 743218; active = well fitted curve in the direction sought with a large enough effect in the repeat runs; inconclusive = weak or mixed curves; inactive = no such curve, though single readings can be large; an effect the other way counts as inactive or inconclusive; note: nearly all actives have a fitted effect of over 45% in size; note: potency is the fitted concentration of half-maximal effect); conditions: FXR-bla HEK293T viability, CellTiter-Glo luminescence, 16 h; viability change, negative = cytotoxic: at 62.6 µM (top of the series) unless noted
# Procedure, shortened: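 After 16 h at 37 C with test compounds, FXR-bla HEK 293T cells were given LiveBLAzer B/G substrate for 2 h at RT and then CellTiter-Glo; luminescence was taken after 30 min.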
# [9] = target: Vitamin D3 receptor (Homo sapiens) (UniProt P11473); test: qHTS assay to identify small molecule agonists of the vitamin D receptor (VDR) signaling pathway (AID 743222); conditions: HEK293T VDR-UAS-bla, beta-lactamase FRET ratio, 16 h; activation: at 63.5 µM (top of the series) unless noted; note: potency is the fitted concentration of half-maximal effect; for activation: % is set by controls: 0 for no effect and ±100 for the full control effect
# Procedure, shortened: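 VDR-bla cells were seeded, left 4 h, treated with compounds in DMSO for 16 h, incubated 2 h at RT with B/G FRET substrate, and read for fluorescence.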
# [10] = target: Vitamin D3 receptor (Homo sapiens) (UniProt P11473); test: qHTS assay to identify small molecule antagonists of the vitamin D receptor (VDR) signaling pathway (AID 743223; active = well fitted inhibition curve with a large enough effect in the signal ratio in the repeat runs, not every such curve was filed as active; inconclusive = weak or mixed curves, or effect the other way; inactive = no such curve, though single readings can be large or run the other way; the % refers to the signal ratio; note: potency is the fitted concentration of half-maximal effect); conditions: VDR-UAS-bla HEK293T, beta-lactamase FRET ratio, 16 h
# Procedure, shortened: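 After VDR-bla cells are plated and left 4 h at 37C, DMSO-dissolved compounds and 3 nM (final) calcitriol agonist are added. Incubation continues 16 h at 37C; FRET beta-lactamase substrate then develops 2 h at room temperature.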
# [11] = qHTS assay for small molecule activators of the heat shock response signaling pathway - cell viability counter screen (AID 743209; active = well fitted curve in the direction sought with a large enough effect in the repeat runs; inconclusive = weak or mixed curves; inactive = no such curve, though single readings can be large; an effect the other way counts as inactive or inconclusive; note: potency is the fitted concentration of half-maximal effect; nearly all actives have a fitted effect of over 50% in size); conditions: HSE-bla HeLa viability, CellTiter-Glo luminescence, 5 h; activity change, negative = cytotoxicity: at 62.6 µM (top of the series) unless noted
# Procedure, shortened: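 Counter screen for cytotoxicity in HeLa HSE-bla reporter cells. Treatment was 5 h at 37 C; viability was detected by luminescent ATP assay (CellTiter-Glo) in the same wells as the beta-lactamase read.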
# [12] = target: Peroxisome proliferator-activated receptor delta (Homo sapiens) (UniProt Q03181); test: qHTS assay to identify small molecule agonists of the peroxisome proliferator-activated receptor delta (PPARd) signaling pathway (AID 743212); conditions: HEK293H PPARd-UAS-bla, beta-lactamase FRET ratio, 17 h; for Potency: activation: at 62.6 µM (top of the series) unless noted; note: potency is the fitted concentration of half-maximal effect
# Procedure, shortened: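 A PPARd-bla HEK293H line with beta-lactamase under an Upstream Activator Sequence is treated with compounds at 37 C. Substrate loading for 2 h at room temperature precedes the fluorescence measurement.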
# [13] = target: Peroxisome proliferator-activated receptor delta (Homo sapiens) (UniProt Q03181); test: qHTS assay to identify small molecule antagonists of the peroxisome proliferator-activated receptor delta (PPARd) signaling pathway (AID 743215; active = well fitted inhibition curve with a large enough effect in the signal ratio in the repeat runs, not every such curve was filed as active; inconclusive = weak or mixed curves, or effect the other way; inactive = no such curve, though single readings can be large or run the other way; the % refers to the signal ratio;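 note: cells stimulated with agonist L165041 at 300 nM final during compound exposure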; note: potency is the fitted concentration of half-maximal effect); conditions: HEK293H PPARd-UAS-bla, beta-lactamase FRET ratio, antagonist, 17 h; ratio activity, negative = inhibition: at 62 µM (top of the series) unless noted
# Procedure, shortened: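 With L165041 present at 300 nM final, compounds were incubated 17 h at 37 C on PPARd UAS-bla HEK293H cells. A FRET-based beta-lactamase substrate was then applied for 2 h at room temperature and fluorescence intensity recorded.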
# [14] = qHTS assay for small molecule agonists of the antioxidant response element (ARE) signaling pathway - cell viability counter screen (AID 743203); conditions: ARE-bla HepG2 viability, CellTiter-Glo luminescence, 16 h; viability change, negative = cytotoxic: at 73.3 µM (top of the series); note: nearly all actives have a fitted effect of over 55% in size; note: potency is the fitted concentration of half-maximal effect
# Procedure, shortened: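 Compounds in DMSO were pinned onto ARE-bla HepG2 cells plated 5 hrs earlier at 2,000 cells/well. Sixteen hours later at 37C/5% CO2, CellTiter-Glo was added and luminescence measured after 30 min at room temperature.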
# [15] = qHTS assay to identify small molecule antagonists of the farnesoid-X-receptor (FXR) signaling pathway - cell viability counter screen (AID 743221; active = well fitted cell-killing curve with a large enough effect in the repeat runs, not every such curve was filed as active; inconclusive = weak or mixed curves, or effect the other way; inactive = no such curve, though single readings can be large or run the other way; note: % is set by controls: 0 for no effect and ±100 for the full control effect; nearly all actives have a fitted effect of over 50% in size); conditions: FXR-bla HEK293T viability, CellTiter-Glo luminescence, 16 h; activity change, negative = cytotoxicity: at 62.6 µM (top of the series) unless noted
# Procedure, shortened: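 CellTiter-Glo, 30 min RT, luminescence; same wells as the LiveBLAzer FRET read. Cells: FXR-UAS-bla HEK 293T. Treatment: compound with chenodeoxycholic acid 50 uM final, 16 h at 37 C.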
# [16] = target: Bile acid receptor (Homo sapiens) (UniProt Q96RI1); test: qHTS assay to identify small molecule agonists of the farnesoid-X-receptor (FXR) signaling pathway (AID 743220; active = well fitted activation curve with a large enough effect in the signal ratio in the repeat runs, not every such curve was filed as active; inconclusive = weak or mixed curves, or effect the other way; the % refers to the signal ratio; note: % is set by controls: 0 for no effect and ±100 for the full control effect); conditions: HEK293T FXR-UAS-bla, beta-lactamase FRET ratio, 16 h; activation: at 62.6 µM (top of the series) unless noted
# Procedure, shortened: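 Beta-lactamase reporter under UAS control in GeneBLAzer FXR HEK 293T cells (5000/well) measured with LiveBLAzer FRET substrate after 2 h at room temperature. Compound exposure lasted 16 h at 37C.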
# [17] = qHTS assay to identify small molecule agonists of the vitamin D receptor (VDR) signaling pathway - cell viability counter screen (AID 743224; active = well fitted curve in the direction sought with a large enough effect in the repeat runs; inconclusive = weak or mixed curves; inactive = no such curve, though single readings can be large; an effect the other way counts as inactive or inconclusive; note: potency is the fitted concentration of half-maximal effect; nearly all actives have a fitted effect of over 50% in size); conditions: VDR-bla HEK293T viability, CellTiter-Glo luminescence, 16 h; activity change, negative = cytotoxicity: at 62.6 µM (top of the series)
# Procedure, shortened: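 Here cell health was gauged by luminescent ATP detection (CellTiter-Glo, 30 min RT) in VDR-bla cells that had been incubated with test compounds for 16 h at 37C and 5% CO2.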
# [18] = activity change, negative = inhibition: at 61 µM (top of the series) unless noted
# Tags give direction and shape of the fitted curve or compound fluorescence and quenching.
# Chain of UniProt P11473 (P11473 whole entry, looked up): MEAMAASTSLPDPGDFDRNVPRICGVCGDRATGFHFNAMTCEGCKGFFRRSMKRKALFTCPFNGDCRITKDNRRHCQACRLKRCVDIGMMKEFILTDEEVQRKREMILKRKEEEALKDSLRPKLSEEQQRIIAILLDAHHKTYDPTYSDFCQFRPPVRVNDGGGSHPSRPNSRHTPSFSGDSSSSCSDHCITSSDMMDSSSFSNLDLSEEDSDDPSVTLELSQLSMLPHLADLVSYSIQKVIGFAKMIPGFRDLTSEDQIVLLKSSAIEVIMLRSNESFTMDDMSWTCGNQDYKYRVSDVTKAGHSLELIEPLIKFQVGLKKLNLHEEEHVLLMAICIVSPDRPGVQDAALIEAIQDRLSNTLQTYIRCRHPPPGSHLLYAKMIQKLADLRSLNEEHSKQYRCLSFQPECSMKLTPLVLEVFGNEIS
# Chain of UniProt Q03181 (Q03181 whole entry, looked up): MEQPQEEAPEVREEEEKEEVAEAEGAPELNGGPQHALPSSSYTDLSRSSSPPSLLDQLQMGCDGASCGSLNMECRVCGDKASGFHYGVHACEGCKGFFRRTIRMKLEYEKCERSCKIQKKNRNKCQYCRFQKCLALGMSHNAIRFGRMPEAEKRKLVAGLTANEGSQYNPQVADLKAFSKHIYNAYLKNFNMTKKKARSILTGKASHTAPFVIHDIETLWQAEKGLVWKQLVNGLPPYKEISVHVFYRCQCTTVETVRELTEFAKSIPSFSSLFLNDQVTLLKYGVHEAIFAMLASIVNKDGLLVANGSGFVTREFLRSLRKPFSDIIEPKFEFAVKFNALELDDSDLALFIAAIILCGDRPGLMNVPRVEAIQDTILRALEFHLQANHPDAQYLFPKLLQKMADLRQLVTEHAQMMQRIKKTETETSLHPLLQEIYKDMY
# Chain of UniProt Q96RI1 (Q96RI1 whole entry, looked up): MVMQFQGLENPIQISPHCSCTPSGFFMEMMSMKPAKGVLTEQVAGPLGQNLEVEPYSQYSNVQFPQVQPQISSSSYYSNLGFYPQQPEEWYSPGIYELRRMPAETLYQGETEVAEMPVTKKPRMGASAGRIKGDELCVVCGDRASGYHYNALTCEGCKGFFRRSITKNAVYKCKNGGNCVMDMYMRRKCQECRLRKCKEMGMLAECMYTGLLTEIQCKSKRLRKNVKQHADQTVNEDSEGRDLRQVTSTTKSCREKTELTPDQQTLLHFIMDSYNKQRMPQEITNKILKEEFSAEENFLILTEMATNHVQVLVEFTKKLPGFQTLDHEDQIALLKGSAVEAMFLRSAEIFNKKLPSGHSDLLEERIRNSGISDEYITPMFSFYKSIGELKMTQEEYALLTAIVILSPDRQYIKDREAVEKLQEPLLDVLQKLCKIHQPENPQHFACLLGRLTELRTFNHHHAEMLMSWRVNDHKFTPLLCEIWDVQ
# Chain of UniProt P37231 (P37231 whole entry, looked up): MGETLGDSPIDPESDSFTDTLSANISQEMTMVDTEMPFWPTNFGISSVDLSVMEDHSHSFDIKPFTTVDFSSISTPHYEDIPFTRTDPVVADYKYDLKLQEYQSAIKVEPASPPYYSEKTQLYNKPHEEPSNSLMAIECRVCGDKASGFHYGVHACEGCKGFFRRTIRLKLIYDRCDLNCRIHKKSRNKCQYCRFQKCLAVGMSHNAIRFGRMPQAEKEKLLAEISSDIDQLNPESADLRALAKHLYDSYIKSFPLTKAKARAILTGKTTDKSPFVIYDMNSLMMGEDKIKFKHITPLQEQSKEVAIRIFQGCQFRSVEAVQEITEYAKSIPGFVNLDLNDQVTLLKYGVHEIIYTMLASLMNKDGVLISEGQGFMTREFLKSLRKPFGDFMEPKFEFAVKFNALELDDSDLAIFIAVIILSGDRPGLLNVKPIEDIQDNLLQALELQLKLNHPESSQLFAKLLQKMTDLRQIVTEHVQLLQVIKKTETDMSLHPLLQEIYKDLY
structure (smiles),measurement,setting,value
CCN(Cc1c(F)cccc1Cl)c1c([N+](=O)[O-])cc(C(F)(F)F)cc1[N+](=O)[O-],Potency,[1],"inconclusive: 61.6 µM [cytotoxic, partial curve, poor fit]"
same,"ratio activity, negative = inhibition",[2],inconclusive: 18.1%
same,Potency,[3],inactive
same,Potency,[4],"inconclusive: 54.9 µM [falling, partial curve]"
same,Potency,[5],active: 17.4 µM
same,Potency,[6],active: 17.4 µM
same,Potency,[7],inconclusive: 49 µM
same,Potency,[8],active: 19.5 µM
same,activation,[9],inconclusive: -27.8%
same,Potency,[10]; [18],inactive
CC(C)Cc1ccc(C(C)C(=O)O)cc1 (stereo unspecified),activation,[1],inconclusive: 8.8%
same,Potency,[2],inactive
same,activation,[3],inconclusive: 16.3% [at 94.8 µM]
same,Potency,[11],"inconclusive: 61.7 µM [rising, partial curve, poor fit]"
same,"activity change, negative = cytotoxicity",[5],inconclusive: -36.3% [cytotoxic] [at 81.1 µM]
same,activation,[12]; at 62.6 µM (top of the series),inconclusive: 9.73%
same,activation,[12]; at 81.1 µM (top of the series),inconclusive: 17.5%
same,"ratio activity, negative = inhibition",[13],inconclusive: 3.88%
same,"viability change, negative = cytotoxic",[8],inconclusive: -6.34% [at 81.1 µM]
Nc1ccccc1N,activation,[1],inconclusive: -7.09%
same,Potency,[2],"inconclusive: 50.1 µM [fluorescent, partial curve] and inconclusive: 8.71 µM [activator, partial curve, poor fit]"
same,Potency,[3],"active: 788 nM and inconclusive: 3.86 µM [activator, partial curve, poor fit]"
same,"viability change, negative = cytotoxic",[14],inconclusive: -34.3% [cytotoxic]
same,Potency,[11],"inconclusive: 0.0217 µM [cytotoxic, full curve, poor fit]"
same,Potency,[4],inconclusive: 4.88 µM
same,Potency,[5],inactive
same,Potency,[12],"inconclusive: 77.6 µM [phenotype inactive, partial curve, poor fit]"
same,Potency,[6],inactive
same,"ratio activity, negative = inhibition",[13],inconclusive: -32.9%
same,Potency,[15],inactive
same,Potency,[9],"inconclusive: 5.49 µM [fluorescent, full curve]"
same,Potency,[10]; [18],"inconclusive: 5.49 µM [partial curve, poor fit]"
same,"activity change, negative = inhibition",[10]; [18],inconclusive: -40.6% [at 78.8 µM]
CS(=O)(=O)OCCCCOS(C)(=O)=O,activation,[1],inconclusive: -17% [at 78.9 µM]
same,"ratio activity, negative = inhibition",[2],inconclusive: 1.47%
same,Potency,[3],inactive
same,Potency,[6],"inconclusive: 0.0237 µM [cytotoxic, full curve, poor fit]"
same,Potency,[9],inactive
same,Potency,[10]; [18],inactive
O=[N+]([O-])c1ccc(O)c2ncccc12,Potency,[1],"inconclusive: 15.1 µM [rising, partial curve, poor fit]"
same,Potency,[2],inactive
same,Potency,[3],inconclusive: 1.33 µM
same,Potency,[14],"inconclusive: 1.06 µM [cytotoxic, full curve]"
same,Potency,[4],inconclusive: 0.196 µM
same,Potency,[5],"inconclusive: 7.5 µM [cytotoxic, full curve]"
same,Potency,[6],"inconclusive: 6.68 µM [cytotoxic, single point]"
same,Potency,[7],"inconclusive: 8.41 µM [inhibitor, full curve]"
same,Potency,[16],inactive
same,Potency,[9],"inconclusive: 15 µM [inhibitor, partial curve]"
same,Potency,[10]; [18],active: 9.52 µM
same,Potency,[17],"inconclusive: 3.35 µM [cytotoxic, full curve]"
NCCS(=O)(=O)O,Potency,[1],inactive
same,Potency,[2],inactive
same,Potency,[3],"inconclusive: 11.3 µM [falling, partial curve, poor fit]"
same,Potency,[5],inactive
same,Potency,[8],inactive
same,"activity change, negative = inhibition",[10]; [18],inconclusive: 12.1%
same,"activity change, negative = inhibition",[10]; at 61 µM (top of the series),inactive: 3.03%
CN(C)c1ccc(C2(c3ccc(N(C)C)cc3)OC(=O)c3cc(N(C)C)ccc32)cc1,Potency,[1],inconclusive: 38.8 µM
same,Potency,[2],"inconclusive: 54.8 µM [activator, single point]"
same,Potency,[3],inconclusive: 9.66 µM
same,Potency,[4],inconclusive: 16.7 µM
same,Potency,[5],"inconclusive: 1.73 µM [cytotoxic, full curve]"
same,Potency,[12],"inconclusive: 15.4 µM [falling, partial curve, poor fit]"
same,"ratio activity, negative = inhibition",[13],inconclusive: 84%
same,Potency,[9],inconclusive: 54.8 µM [activator]
CC(=O)c1cnccn1,Potency,[1],inactive
same,"ratio activity, negative = inhibition",[2],inconclusive: 0.259% [at 81.1 µM]
same,Potency,[3],inactive
CC(=O)Oc1ccc(C(=C2CCCCC2)c2ccc(OC(C)=O)cc2)cc1,Potency,[1],"inconclusive: 19 µM [activator, partial curve]"
same,Potency,[2],"inconclusive: 26.6 µM [inhibitor, single point]"
same,Potency,[3],active: 29.8 µM
same,Potency,[4],active: 26.6 µM
same,Potency,[5],"inconclusive: 33.5 µM [cytotoxic, single point]"
same,Potency,[13],inconclusive: 29.8 µM
same,Potency,[17],"inconclusive: 29.8 µM [cytotoxic, single point]"
c1ccc(-c2ccccn2)nc1,Potency,[1],"inconclusive: 49 µM [fluorescent, single point]"
same,"ratio activity, negative = inhibition",[2],inconclusive: 2.74%
same,Potency,[3],"inconclusive: 54.5 µM [falling, partial curve]"
same,Potency,[4],inconclusive: 51.9 µM [activator]
same,Potency,[12],inactive
